Results: paper PMC4336329 (PLoS ONE, 2015)
In all, about 310,000 compounds went through this assay and about 14,000 (4.5%) showed an effect of 50% or more. Effects have a minus sign here. This is one part of the list.

What follows are compounds tested against human ether-à-go-go-related gene (hERG) potassium channel (human, UniProt Q12809) (assay: primary screen, population patch clamp on CHO cells stably expressing hERG).
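Further: peak tail current of the secondary pulse compared with the same well before compound.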

Sequence of human ether-à-go-go-related gene (hERG) potassium channel (Q12809 whole entry, looked up): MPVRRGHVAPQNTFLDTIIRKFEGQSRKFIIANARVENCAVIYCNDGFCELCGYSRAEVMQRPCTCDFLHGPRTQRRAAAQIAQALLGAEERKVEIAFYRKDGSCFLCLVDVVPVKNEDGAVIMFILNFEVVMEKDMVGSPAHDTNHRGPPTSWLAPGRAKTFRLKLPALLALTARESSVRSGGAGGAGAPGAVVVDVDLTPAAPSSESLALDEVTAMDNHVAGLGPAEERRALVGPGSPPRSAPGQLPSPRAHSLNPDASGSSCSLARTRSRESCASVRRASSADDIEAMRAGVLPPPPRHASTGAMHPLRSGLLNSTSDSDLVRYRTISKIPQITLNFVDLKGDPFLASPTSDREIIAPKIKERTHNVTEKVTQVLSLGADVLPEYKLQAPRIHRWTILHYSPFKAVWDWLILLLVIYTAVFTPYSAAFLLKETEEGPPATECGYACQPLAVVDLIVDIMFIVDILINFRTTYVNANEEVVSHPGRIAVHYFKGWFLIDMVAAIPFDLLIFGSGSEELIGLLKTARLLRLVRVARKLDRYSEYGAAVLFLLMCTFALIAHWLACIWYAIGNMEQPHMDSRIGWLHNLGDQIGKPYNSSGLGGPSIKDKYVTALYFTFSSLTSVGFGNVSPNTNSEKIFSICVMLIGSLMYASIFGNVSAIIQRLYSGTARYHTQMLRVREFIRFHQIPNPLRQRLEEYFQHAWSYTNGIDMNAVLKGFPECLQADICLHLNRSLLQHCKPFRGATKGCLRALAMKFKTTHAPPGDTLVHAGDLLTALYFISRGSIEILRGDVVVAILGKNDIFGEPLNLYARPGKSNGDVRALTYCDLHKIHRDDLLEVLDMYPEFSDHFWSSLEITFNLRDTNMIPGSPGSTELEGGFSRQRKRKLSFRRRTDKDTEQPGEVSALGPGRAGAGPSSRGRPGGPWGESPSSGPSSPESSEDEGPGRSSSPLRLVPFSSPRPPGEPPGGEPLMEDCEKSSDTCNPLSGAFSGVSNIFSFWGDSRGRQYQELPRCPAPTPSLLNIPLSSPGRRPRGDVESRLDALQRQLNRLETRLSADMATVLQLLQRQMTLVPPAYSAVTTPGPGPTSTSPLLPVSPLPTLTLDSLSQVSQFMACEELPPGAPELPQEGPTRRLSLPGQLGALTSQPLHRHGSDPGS

Going from `COc1cccc(C(=O)NC2CC3CCCC(C2)N3S(=O)(=O)c2ccccc2)c1` (stereo not drawn) to `Cc1ccc(NC(=O)CN2CCC(NC(=O)Cc3ccccc3)CC2)cc1C`, the “hERG current change (%, negative = inhibition) at 10uM” value rises from -75.8% to -12.8%.

First: C=CCn1c(SCC(=O)Nc2ccc(Br)cc2)nc(O)c(CC)c1=O
Second: CCc1nnc(NC(=O)CSc2nc3c(c(=O)n2C)SC(C)C3)s1 (stereo not drawn)
The “hERG current change (%, negative = inhibition) at 10uM” value of the first is higher: 4.3% for the first, -2.54% for the second.

Going from `NC(=O)COC(=O)c1ccccc1OCc1ccc(Cl)cc1` to `CCc1ccccc1NCC(=O)Nc1ccccc1C(=O)OC`, the “hERG current change (%, negative = inhibition) at 10uM” value rises from -5.5% to 1.49%.

Compared with `CC(C)(C)OC(=O)NNC(=O)C12CC3CC(CC(C3)C1)C2`, `CC(C)(C)c1ccc(C(=O)N2CCCCCC2=O)cc1` is lower in “hERG current change (%, negative = inhibition) at 10uM” value: 10.9% for the first, -6.48% for the second.

Going from `COc1cccc(C2CC(C(F)(F)F)n3ncc(C(=O)Nc4c(C)n(C)n(-c5ccccc5)c4=O)c3N2)c1` (stereo not drawn) to `COc1cccc(C2CC(c3ccccc3OC)n3ncnc3N2)c1` (stereo not drawn), the “hERG current change (%, negative = inhibition) at 10uM” value falls from 5.82% to -9.51%.

Going from `Cc1ccc2c(C)c(C(=O)NCC(C)(C)N3CCOCC3)oc2c1C` to `O=C(Nc1ccccc1N1CCOCC1)c1cc(=O)[nH]c2ccccc12`, the “hERG current change (%, negative = inhibition) at 10uM” value rises from -7.07% to -3.96%.

First: CCC(c1nnnn1Cc1cccs1)N1CCN(C2CCCC2)CC1.Cl (stereo not drawn)
Second: O=C(NCCCN1CCc2ccccc2C1)C1CCN(c2nnc(-n3cccc3)s2)CC1
The “hERG current change (%, negative = inhibition) at 10uM” value of the first is higher: -22.3% for the first, -55.6% for the second.

First: COc1ccc(OC)c(NC(=O)CCN2CCN(CCO)CC2)c1
Second: COc1ccc(C(=O)O)cc1NC(=S)NC(=O)CSc1ccc(Cl)cc1
The “hERG current change (%, negative = inhibition) at 10uM” value of the first is higher: 11.6% for the first, 3.78% for the second.

First: O=C(N/N=C/c1ccc([N+](=O)[O-])o1)c1ccccc1NS(=O)(=O)c1cccs1
Second: CN(C)CCNC(=O)/C(=C/c1ccc(-c2cccc([N+](=O)[O-])c2)o1)NC(=O)c1ccccc1
The “hERG current change (%, negative = inhibition) at 10uM” value of the first is higher: -1.99% for the first, -75.4% for the second.

Compared with `Cc1nc(SCC(=O)c2ccccc2)c([N+](=O)[O-])[nH]1`, `O=C(NCCc1ccccc1)c1ccc(Cl)c([N+](=O)[O-])c1` is lower in “hERG current change (%, negative = inhibition) at 10uM” value: 9.37% for the first, -27.2% for the second.

Compared with `Cn1ncc2c(N3CCCCC3)nc(NCCCO)nc21`, `O=C(Nc1ccc(OC(F)(F)F)cc1)Oc1ccccc1N1CCCCC1` is higher in “hERG current change (%, negative = inhibition) at 10uM” value: 11.9% for the first, 15.8% for the second.

Going from `COc1cc(NC(=O)CCS(=O)(=O)c2ccc3c(c2)oc(=O)n3C)cc(OC)c1` to `COc1cc(OC)cc(-c2c(-c3cccs3)c3cc(-c4cnc(OC)nc4)ccc3n2C)c1`, the “hERG current change (%, negative = inhibition) at 10uM” value rises from -37.9% to 1.57%.

Going from `O=C(O)c1ccc(Cl)c(S(=O)(=O)NCc2ccco2)c1` to `CNS(=O)(=O)c1cccc(C(=O)NCC(c2ccco2)N(C)C)c1` (stereo not drawn), the “hERG current change (%, negative = inhibition) at 10uM” value falls from 11.5% to 3.32%.

Compared with `Cn1c(=O)c2ccccc2n(CC(=O)NC2CCCC2)c1=O`, `Cc1cccn2c(=O)c3cc(C(=O)NC4CCCCC4)c(=N)n(Cc4ccccc4)c3nc12` is lower in “hERG current change (%, negative = inhibition) at 10uM” value: 9.82% for the first, -74.6% for the second.

Compared with `COc1ccc(CNC(=O)CN(CC2CCCO2)C(=O)CNS(=O)(=O)c2ccc(C)cc2)cc1` (stereo not drawn), `COc1ccc(-c2cc(=O)oc3c(C)c(OCC(=O)NCC4CCC(C(=O)O)CC4)ccc23)cc1` (stereo not drawn) is higher in “hERG current change (%, negative = inhibition) at 10uM” value: -13.9% for the first, -2.21% for the second.

First: CCOc1ccc(/C=C(\C(=O)O)c2ccc(S(=O)(=O)N3CCOCC3)s2)cc1OC
Second: CCOc1ccccc1N1CCN(S(=O)(=O)CC)CC1
The “hERG current change (%, negative = inhibition) at 10uM” value of the first is lower: 6.61% for the first, 11.8% for the second.

First: C[C@H](CCC(=O)[O-])[C@H]1CC[C@H]2[C@@H]3[C@H](O)C[C@@H]4C[C@H](O)CC[C@]4(C)[C@H]3C[C@H](O)[C@]12C.O.[Na+]
Second: CC(=O)NCC(=O)N(c1c(C)n(C)n(-c2ccccc2)c1=O)C1(C(=O)NC2CCCC2)CCCCC1
The “hERG current change (%, negative = inhibition) at 10uM” value of the first is lower: 6.36% for the first, 9.93% for the second.

Going from `O=c1[nH]cnc2sc3c(c12)CCCCC3` to `CC1(C)Cc2c(sc3[nH]c(=S)n(Cc4ccccc4)c(=O)c23)CO1`, the “hERG current change (%, negative = inhibition) at 10uM” value rises from -8.3% to 12.6%.

Going from `Cc1c(C(=O)NCc2cccnc2)sc2nc(-c3ccc(F)cc3)cn12` to `COc1ccc(-n2c(C)cc(C(=O)CN3C(=O)c4ccccc4C3=O)c2C)cc1`, the “hERG current change (%, negative = inhibition) at 10uM” value rises from -40.4% to 14.1%.

Compared with `O=C(O)C1C2C=CC(O2)C1C(=O)Nc1ccc(S(=O)(=O)N2CCc3ccccc32)cc1` (stereo not drawn), `COc1nccnc1NS(=O)(=O)c1ccc(NC(=S)NC(=O)c2cccnc2)cc1` is lower in “hERG current change (%, negative = inhibition) at 10uM” value: 20.7% for the first, 13% for the second.

Compared with `O=c1c(Cc2ccc(Cl)cc2)c(O)ccn1Cc1cccs1`, `O=C(NCc1nc2ccccc2[nH]1)C1=C[C@H](C2CC2)C[C@H](OCc2ccc(CO)cc2)O1` is lower in “hERG current change (%, negative = inhibition) at 10uM” value: 4.04% for the first, -2.57% for the second.

Going from `CCC(=O)N1c2ccccc2NC2=C(C(=O)CCC2)C1c1ccc(N(C)C)cc1` (stereo not drawn) to `N#CC1C=Cc2ccccc2N1C(=O)c1ccccc1` (stereo not drawn), the “hERG current change (%, negative = inhibition) at 10uM” value falls from 9.42% to 6.84%.

Going from `COc1cc(C)ccc1OCCCCNCc1ccccc1.O=C(O)C(=O)O` to `CC(=O)c1ccc(OC(NC(=O)Cc2ccccc2)C(Cl)(Cl)Cl)cc1` (stereo not drawn), the “hERG current change (%, negative = inhibition) at 10uM” value falls from -0.752% to -11.6%.

Compared with `O=C(/C=C/Nc1ccccc1C(F)(F)F)c1ccco1`, `O=C(CNC(=O)c1ccccn1)N/N=C/c1ccccc1` is higher in “hERG current change (%, negative = inhibition) at 10uM” value: -5.06% for the first, 4.84% for the second.

Going from `Nc1n[nH]c(N)c1N=Nc1ccccc1` to `CC(=O)Nc1nnc(SCc2ccccc2F)s1`, the “hERG current change (%, negative = inhibition) at 10uM” value rises from 16.7% to 17.1%.

Going from `COc1cccc(NC(=O)Nc2ccc(C)c(Cl)c2)c1` to `COc1ccc(N(C(=O)c2ccco2)C(C(=O)NC2CCCC2)c2cccnc2)c(OC)c1` (stereo not drawn), the “hERG current change (%, negative = inhibition) at 10uM” value falls from 5.82% to -0.565%.

First: COC(=O)C1=C(c2ccc(OC(F)(F)F)cc2)C[C@@H]2CC[C@H]1N2C(=O)NCc1cc(C)oc1C(F)(F)F
Second: COc1ccc(C(C)(C)C)cc1NC(=O)c1[nH]c(C)c(C(C)=O)c1C
The “hERG current change (%, negative = inhibition) at 10uM” value of the first is higher: 14.7% for the first, -9.84% for the second.
